Experimental data from PubChem BioAssay (Tox21).
“And” between values parts separate entries of the source, which are not always exact repeats. Equal values may be shown once. Inconclusive means that the source gave no clear call. Such entries were picked first, then a sample of the others. For some assays here: Potencies beside an inconclusive call are fits to weak or partial responses and may not hold up. The source made the active and inactive calls. Unless noted, the call rests on the fitted dose curve; in most records, active means well fitted curve in the direction sought with a large enough effect in the repeat runs; inconclusive means weak or mixed curves; inactive means no such curve, though single readings can be large; an effect the other way counts as inactive or inconclusive.

Columns and labels:
[1] = qHTS assay for small molecule agonists of the p53 signaling pathway (AID 651631; calls by dose curve; further: on the % scale 0 is the no-effect control and ±100 the full control effect; nearly all actives have a fitted effect of over 15% in size); settings: HCT-116 p53RE-bla reporter, beta-lactamase FRET ratio, 16 h; activation: at 73.3 µM (top of the series) unless noted
In short: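 HCT-116 p53RE-bla reporter line, 16 h compound treatment at 37 °C, then fluorescence after 2 h with B/G FRET substrate.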

[2] = qHTS assay for small molecule disruptors of the mitochondrial membrane potential (AID 720635); settings: HepG2 mitochondrial membrane potential, Mito-MPS dye ratio; ratio activity, negative = MMP loss: at 83.2 µM (top of the series) unless noted; further: potency means the concentration at half of the fitted maximal effect; on ratio activity, negative = MMP loss: on the % scale 0 is the no-effect control and ±100 the full control effect
In short: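 Mitochondrial membrane potential tracked with Mito-MPS dye, red aggregates (ex 540/em 590 nm) against green monomers (ex 490/em 535 nm). Compound treatment 1 hr at 37C, dye 30 min in HepG2.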

[3] = qHTS assay for small molecule agonists of the antioxidant response element (ARE) signaling pathway (AID 743202; active means well fitted activation curve with a large enough effect in the signal ratio in the repeat runs, not every such curve was filed as active; inconclusive means weak or mixed curves, or effect the other way; inactive means no such curve, though single readings can be large or run the other way; the % refers to the signal ratio; further: potency means the concentration at half of the fitted maximal effect); settings: HepG2 ARE-bla reporter, beta-lactamase FRET, 16 h; activation: at 73.3 µM (top of the series) unless noted
In short: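 After 16 hours of compound treatment at 37 C, HepG2 cells with a stably integrated ARE-driven beta-lactamase reporter were loaded 2 hours at room temperature with LiveBLAzer B/G FRET substrate and fluorescence intensity measured.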

[4] = target: Cytochrome P450 2C9 (Homo sapiens) (UniProt P11712); test: Cytochrome P450 Family 2 Subfamily C Member 9 (CYP2C9) small molecule antagonists: luciferase reporter qHTS assay (AID 1671198); further: potency means the concentration at half of the fitted maximal effect; nearly all actives have a fitted effect of over 50% in size
UniProt P11712, sequence (P11712 whole entry, looked up): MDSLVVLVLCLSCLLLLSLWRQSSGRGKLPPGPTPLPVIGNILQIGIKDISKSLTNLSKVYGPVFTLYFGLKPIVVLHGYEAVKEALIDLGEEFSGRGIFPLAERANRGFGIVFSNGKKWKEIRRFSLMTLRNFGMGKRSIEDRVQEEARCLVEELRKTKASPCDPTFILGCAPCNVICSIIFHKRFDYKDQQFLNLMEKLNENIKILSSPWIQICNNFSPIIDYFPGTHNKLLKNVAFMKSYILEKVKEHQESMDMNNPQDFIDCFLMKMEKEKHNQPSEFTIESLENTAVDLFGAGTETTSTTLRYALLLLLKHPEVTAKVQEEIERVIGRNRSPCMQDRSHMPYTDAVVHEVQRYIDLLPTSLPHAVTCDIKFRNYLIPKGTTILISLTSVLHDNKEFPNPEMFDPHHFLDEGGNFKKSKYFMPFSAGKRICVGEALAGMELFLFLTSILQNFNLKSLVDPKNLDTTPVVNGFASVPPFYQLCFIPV
In short: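 Enzyme-substrate mix preincubated with compound 10 min at room temperature; reaction started with NADPH regeneration solution, 1 h 37C. Luminescent luciferin product read after 20 min detection reagent.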

[5] = qHTS assay to identify small molecule agonists of H2AX - cell viability counter screen (AID 1224847; calls by dose curve; further: top concentration of the series differs between compounds; on the % scale 0 is the no-effect control and ±100 the full control effect; nearly all actives have a fitted effect of over 30% in size)
In short: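 We seed wild-type CHO-K1 cells overnight, treat them for 3 hr at 37C with compounds in 15-concentration series, and quantify remaining viability by CellTiter-Glo luminescence.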

[6] = target: Cytochrome P450 1A2 (Homo sapiens) (UniProt P05177); test: Cytochrome P450 Family 1 Subfamily A Member 2 (CYP1A2) small molecule antagonists: luciferase reporter qHTS assay (AID 1671199); further: nearly all actives have a fitted effect of over 50% in size; further: potency means the concentration at half of the fitted maximal effect
UniProt P05177, sequence (P05177 whole entry, looked up): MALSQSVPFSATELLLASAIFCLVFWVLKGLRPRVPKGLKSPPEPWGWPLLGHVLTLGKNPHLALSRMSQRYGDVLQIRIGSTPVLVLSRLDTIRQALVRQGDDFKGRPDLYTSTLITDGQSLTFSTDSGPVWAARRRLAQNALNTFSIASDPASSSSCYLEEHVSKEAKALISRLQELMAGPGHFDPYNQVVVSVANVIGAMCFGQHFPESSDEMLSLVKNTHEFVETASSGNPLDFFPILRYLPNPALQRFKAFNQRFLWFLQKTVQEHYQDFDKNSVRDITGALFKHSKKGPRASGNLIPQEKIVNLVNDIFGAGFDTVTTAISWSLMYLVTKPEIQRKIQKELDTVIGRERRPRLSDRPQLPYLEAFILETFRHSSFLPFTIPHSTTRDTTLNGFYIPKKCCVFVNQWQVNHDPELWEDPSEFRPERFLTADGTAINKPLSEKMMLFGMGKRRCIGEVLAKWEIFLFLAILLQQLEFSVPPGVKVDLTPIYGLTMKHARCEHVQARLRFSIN
In short: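 Quantitative high-throughput format using the P450-Glo CYP1A2 system. Reaction initiated by NADPH regeneration solution, 1 h at room temperature, then stopped with detection reagent; luminescence measured 20 min later.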

[7] = target: Progesterone receptor (Homo sapiens) (UniProt P06401); test: qHTS assay to identify small molecule antagonists of the progesterone receptor (PR) signaling pathway (AID 1346795; active means well fitted inhibition curve with a large enough effect in the signal ratio in the repeat runs, not every such curve was filed as active; inconclusive means weak or mixed curves; the % refers to the signal ratio; further: on the % scale 0 is the no-effect control and ±100 the full control effect); settings: PR-UAS-bla HEK293T, beta-lactamase FRET ratio, 16 h; activity change, negative = inhibition: at 92.4 µM (top of the series) unless noted
UniProt P06401, sequence (P06401 whole entry, looked up): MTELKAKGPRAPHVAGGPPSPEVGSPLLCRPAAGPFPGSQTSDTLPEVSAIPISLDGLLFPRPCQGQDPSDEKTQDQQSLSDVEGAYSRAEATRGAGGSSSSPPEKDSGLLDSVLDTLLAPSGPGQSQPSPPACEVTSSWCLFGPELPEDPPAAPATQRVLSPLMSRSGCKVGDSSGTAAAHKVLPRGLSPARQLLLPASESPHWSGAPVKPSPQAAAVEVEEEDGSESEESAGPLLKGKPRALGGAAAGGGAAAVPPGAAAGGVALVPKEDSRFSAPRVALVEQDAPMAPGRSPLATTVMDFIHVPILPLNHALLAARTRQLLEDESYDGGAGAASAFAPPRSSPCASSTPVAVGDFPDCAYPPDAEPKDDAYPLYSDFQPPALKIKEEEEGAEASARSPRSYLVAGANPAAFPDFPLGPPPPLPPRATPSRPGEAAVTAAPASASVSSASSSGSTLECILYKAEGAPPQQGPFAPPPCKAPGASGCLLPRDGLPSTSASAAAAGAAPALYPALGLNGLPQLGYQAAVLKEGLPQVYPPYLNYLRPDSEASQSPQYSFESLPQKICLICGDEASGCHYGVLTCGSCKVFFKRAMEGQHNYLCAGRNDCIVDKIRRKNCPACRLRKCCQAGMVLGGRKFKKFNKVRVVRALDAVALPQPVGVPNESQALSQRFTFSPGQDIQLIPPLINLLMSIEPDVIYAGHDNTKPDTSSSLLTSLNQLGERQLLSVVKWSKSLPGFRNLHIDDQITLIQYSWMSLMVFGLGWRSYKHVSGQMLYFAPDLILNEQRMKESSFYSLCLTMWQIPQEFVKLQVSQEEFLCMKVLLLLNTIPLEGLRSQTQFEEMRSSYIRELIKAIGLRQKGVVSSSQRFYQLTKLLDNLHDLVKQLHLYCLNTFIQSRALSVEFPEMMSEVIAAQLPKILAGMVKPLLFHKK
In short: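 HEK293T PR-UAS-bla reporter cells in charcoal-stripped serum (2%) received compound after a 6 hr settling period, followed by R5020 agonist at 1 nM final; 16 hr incubation preceded the FRET substrate step and fluorescence measurement.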

[8] = target: Cytochrome P450 2C19 (Homo sapiens) (UniProt P33261); test: Cytochrome P450 Family 2 Subfamily C Member 19 (CYP2C19) small molecule antagonists: luciferase reporter qHTS assay (AID 1671197); further: potency means the concentration at half of the fitted maximal effect; nearly all actives have a fitted effect of over 65% in size
In short: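 Compounds were tested on CYP2C19 activity via proluciferin conversion to luciferin. The 37C, 1 h reaction followed NADPH addition; detection reagent stopped it.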

[9] = target: Vitamin D3 receptor (Homo sapiens) (UniProt P11473); test: qHTS assay to identify small molecule antagonists of the vitamin D receptor (VDR) signaling pathway (AID 743223; active means well fitted inhibition curve with a large enough effect in the signal ratio in the repeat runs, not every such curve was filed as active; inconclusive means weak or mixed curves, or effect the other way; inactive means no such curve, though single readings can be large or run the other way; the % refers to the signal ratio; further: on the % scale 0 is the no-effect control and ±100 the full control effect); settings: VDR-UAS-bla HEK293T, beta-lactamase FRET ratio, 16 h; activity change, negative = inhibition: at 61 µM (top of the series) unless noted
UniProt P11473, sequence (P11473 whole entry, looked up): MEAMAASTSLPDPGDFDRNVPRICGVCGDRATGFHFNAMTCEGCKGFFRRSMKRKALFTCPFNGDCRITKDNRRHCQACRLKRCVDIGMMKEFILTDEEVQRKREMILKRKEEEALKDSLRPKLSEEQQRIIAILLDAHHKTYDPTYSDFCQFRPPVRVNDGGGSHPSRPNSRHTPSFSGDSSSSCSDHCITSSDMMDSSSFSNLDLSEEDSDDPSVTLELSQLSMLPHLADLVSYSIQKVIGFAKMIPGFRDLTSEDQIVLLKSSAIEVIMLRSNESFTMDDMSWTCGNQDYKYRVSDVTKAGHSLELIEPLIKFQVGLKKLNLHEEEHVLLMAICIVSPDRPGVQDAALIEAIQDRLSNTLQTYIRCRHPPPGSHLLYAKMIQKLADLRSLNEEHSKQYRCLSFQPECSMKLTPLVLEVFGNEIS
In short: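 Fluorescence from LiveBLAzer B/G FRET substrate, read after 2 h at room temperature, reflects beta-lactamase reporter activity in VDR-bla cells treated 16 h at 37C with compounds and agonist 1alpha,25-dihydroxyvitamin D3 (3 nM final).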

[10] = qHTS assay for identifying genotoxic compounds that show differential cytotoxicity against isogenic chicken DT40 cell lines with known DNA damage response pathways - wild type cell line (AID 743012); settings: DT40 wild type chicken cells viability, CellTiter-Glo, 40 h; activity change, negative = cytotoxicity: at 68.4 µM (top of the series) unless noted; further: nearly all actives have a fitted effect of over 60% in size; further: potency means the concentration at half of the fitted maximal effect
In short: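 300 wt DT40 cells/well; cpd (DMSO) pintool-transferred after ~0.5 h at 37 C/5% CO2; 40 h incubation; CellTiter-Glo added, 30 min RT; luminescence read.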

[11] = qHTS assay for identifying genotoxic compounds that show differential cytotoxicity against isogenic chicken DT40 cell lines with known DNA damage response pathways - Rev3 mutant cell line (AID 743014); settings: chicken DT40 Rev3-/- viability, CellTiter-Glo, 40 h; activity, negative = cytotoxicity: at 68.4 µM (top of the series) unless noted; further: potency means the concentration at half of the fitted maximal effect; nearly all actives have a fitted effect of over 55% in size
[12] = target: Peroxisome proliferator-activated receptor gamma (Homo sapiens) (UniProt P37231); test: qHTS assay to identify small molecule antagonists of the peroxisome proliferator-activated receptor gamma (PPARg) signaling pathway (AID 743191; calls by dose curve; further: nearly all actives have a fitted effect of over 30% in size; further: potency means the concentration at half of the fitted maximal effect); settings: HEK293H PPARg-UAS-bla, beta-lactamase ratio, antagonist, 17 h; ratio activity, negative = inhibition: at 62.6 µM (top of the series) unless noted
UniProt P37231, sequence (P37231 whole entry, looked up): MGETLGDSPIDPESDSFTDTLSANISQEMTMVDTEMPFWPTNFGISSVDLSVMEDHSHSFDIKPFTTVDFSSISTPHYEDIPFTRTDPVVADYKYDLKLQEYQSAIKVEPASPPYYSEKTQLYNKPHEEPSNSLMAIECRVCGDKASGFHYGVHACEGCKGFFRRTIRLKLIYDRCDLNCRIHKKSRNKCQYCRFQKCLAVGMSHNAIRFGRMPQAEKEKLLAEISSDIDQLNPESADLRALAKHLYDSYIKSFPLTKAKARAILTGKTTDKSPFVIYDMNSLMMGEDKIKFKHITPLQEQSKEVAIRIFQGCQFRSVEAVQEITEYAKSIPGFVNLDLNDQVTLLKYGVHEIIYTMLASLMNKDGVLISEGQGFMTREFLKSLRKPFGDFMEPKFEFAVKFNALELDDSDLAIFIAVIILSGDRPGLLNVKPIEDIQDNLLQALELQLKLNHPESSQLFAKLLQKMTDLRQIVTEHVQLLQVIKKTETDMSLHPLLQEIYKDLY
In short: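 Beta-lactamase reporter under UAS control in HEK293H PPARg-bla cells; compound treatment 17 h at 37C. Read-out: fluorescence intensity after 1 h room-temperature incubation with LiveBLAzer B/G FRET substrate.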

[13] = qHTS assay to identify small molecule antagonists of the sonic hedgehog signaling (Shh) pathway (AID 1259369; calls by dose curve; further: potency means the concentration at half of the fitted maximal effect; nearly all actives have a fitted effect of over 45% in size)
In short: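 Gli1 transcriptional reporter (firefly Luc) in NIH/3T3 background, conditioned-medium activated. 24hr exposure, luminescence endpoint.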

[14] = target: Estrogen receptor beta (Homo sapiens) (UniProt Q92731); test: qHTS assay to identify small molecule antagonists of the estrogen receptor beta (ER-beta) signaling pathway (AID 1259378; active means well fitted inhibition curve with a large enough effect in the signal ratio in the repeat runs, not every such curve was filed as active; inconclusive means weak or mixed curves, or effect the other way; inactive means no such curve, though single readings can be large or run the other way; the % refers to the signal ratio; further: on the % scale 0 is the no-effect control and ±100 the full control effect); settings: ER-beta-UAS-bla HEK293T, beta-lactamase FRET ratio, 16 h; activity, negative = inhibition: at 92.4 µM (top of the series) unless noted
UniProt Q92731, sequence (Q92731 whole entry, looked up): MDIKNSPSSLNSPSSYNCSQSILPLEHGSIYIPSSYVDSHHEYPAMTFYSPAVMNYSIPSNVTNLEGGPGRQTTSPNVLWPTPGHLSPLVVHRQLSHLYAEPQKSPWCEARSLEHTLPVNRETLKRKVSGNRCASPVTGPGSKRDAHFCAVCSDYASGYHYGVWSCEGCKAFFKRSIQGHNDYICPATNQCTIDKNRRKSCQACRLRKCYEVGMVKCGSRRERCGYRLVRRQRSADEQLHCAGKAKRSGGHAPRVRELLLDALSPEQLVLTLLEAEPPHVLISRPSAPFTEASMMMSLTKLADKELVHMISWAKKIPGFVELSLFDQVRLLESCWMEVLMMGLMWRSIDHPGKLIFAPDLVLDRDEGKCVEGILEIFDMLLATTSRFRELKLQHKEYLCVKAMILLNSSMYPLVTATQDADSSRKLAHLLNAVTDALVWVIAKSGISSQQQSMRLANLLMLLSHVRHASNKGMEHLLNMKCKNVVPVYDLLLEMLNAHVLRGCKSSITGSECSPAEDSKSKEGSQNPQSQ
In short: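 Antagonist mode: compounds added to beta-lactamase reporter HEK293T ER-beta-UAS cells stimulated with E2 (1nM final), 16 hr at 37C. LiveBLAzer B/G FRET substrate, 2 hours room temperature, fluorescence read-out.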

[15] = target: Glucocorticoid receptor (Homo sapiens) (UniProt P04150); test: qHTS assay to identify small molecule antagonists of the glucocorticoid receptor (GR) signaling pathway (AID 720692; active means well fitted inhibition curve with a large enough effect in the signal ratio in the repeat runs, not every such curve was filed as active; inconclusive means weak or mixed curves, or effect the other way; inactive means no such curve, though single readings can be large or run the other way; the % refers to the signal ratio; further: potency means the concentration at half of the fitted maximal effect); settings: GR-bla HeLa, beta-lactamase FRET ratio, dexamethasone-stimulated, 18 h; activity change, negative = inhibition: at 58.5 µM (top of the series) unless noted
UniProt P04150, sequence (P04150 whole entry, looked up): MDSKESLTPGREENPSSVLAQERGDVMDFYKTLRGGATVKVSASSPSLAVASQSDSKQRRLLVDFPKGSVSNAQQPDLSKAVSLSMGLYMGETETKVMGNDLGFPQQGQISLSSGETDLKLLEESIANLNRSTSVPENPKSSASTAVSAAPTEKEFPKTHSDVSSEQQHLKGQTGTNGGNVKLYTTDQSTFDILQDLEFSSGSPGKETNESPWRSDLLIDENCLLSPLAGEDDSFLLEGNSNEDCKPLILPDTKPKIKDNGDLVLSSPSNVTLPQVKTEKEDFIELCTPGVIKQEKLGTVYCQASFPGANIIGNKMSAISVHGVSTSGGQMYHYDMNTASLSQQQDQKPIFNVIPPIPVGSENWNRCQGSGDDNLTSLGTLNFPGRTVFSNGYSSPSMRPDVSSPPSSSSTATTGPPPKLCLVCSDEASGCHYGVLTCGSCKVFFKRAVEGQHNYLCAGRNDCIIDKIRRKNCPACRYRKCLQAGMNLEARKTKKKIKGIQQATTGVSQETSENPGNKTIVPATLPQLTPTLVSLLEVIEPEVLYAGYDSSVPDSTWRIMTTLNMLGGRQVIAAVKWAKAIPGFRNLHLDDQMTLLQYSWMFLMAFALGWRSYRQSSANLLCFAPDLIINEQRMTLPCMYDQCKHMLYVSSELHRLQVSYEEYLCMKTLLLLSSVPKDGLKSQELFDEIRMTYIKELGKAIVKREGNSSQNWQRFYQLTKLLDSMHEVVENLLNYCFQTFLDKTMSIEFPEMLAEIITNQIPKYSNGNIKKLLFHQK
In short: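 GRE-bla HeLa line, dex-stimulated (5 nM final). Compound exposure 18 h, 37 C. Beta-lactamase FRET read after 2 h RT substrate.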

[16] = qHTS assay to identify small molecule agonists of the estrogen receptor beta (ER-beta) signaling pathway - cell viability counter screen (AID 1259380); further: nearly all actives have a fitted effect of over 30% in size; further: potency means the concentration at half of the fitted maximal effect
In short: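 In this qHTS counter screen, HEK293T cells carrying an ER-beta/UAS beta-lactamase reporter, grown in 2% charcoal-stripped FBS, received compound for 16 hr; ATP-based CellTiter-Glo luminescence was then read after 30 min at room temperature.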

[17] = target: Cytochrome P450 2D6 (Homo sapiens) (UniProt P10635); test: Cytochrome P450 Family 2 Subfamily D Member 6 (CYP2D6) small molecule antagonists: luciferase reporter qHTS assay (AID 1671196); further: nearly all actives have a fitted effect of over 50% in size; further: potency means the concentration at half of the fitted maximal effect
UniProt P10635, sequence (P10635 whole entry, looked up): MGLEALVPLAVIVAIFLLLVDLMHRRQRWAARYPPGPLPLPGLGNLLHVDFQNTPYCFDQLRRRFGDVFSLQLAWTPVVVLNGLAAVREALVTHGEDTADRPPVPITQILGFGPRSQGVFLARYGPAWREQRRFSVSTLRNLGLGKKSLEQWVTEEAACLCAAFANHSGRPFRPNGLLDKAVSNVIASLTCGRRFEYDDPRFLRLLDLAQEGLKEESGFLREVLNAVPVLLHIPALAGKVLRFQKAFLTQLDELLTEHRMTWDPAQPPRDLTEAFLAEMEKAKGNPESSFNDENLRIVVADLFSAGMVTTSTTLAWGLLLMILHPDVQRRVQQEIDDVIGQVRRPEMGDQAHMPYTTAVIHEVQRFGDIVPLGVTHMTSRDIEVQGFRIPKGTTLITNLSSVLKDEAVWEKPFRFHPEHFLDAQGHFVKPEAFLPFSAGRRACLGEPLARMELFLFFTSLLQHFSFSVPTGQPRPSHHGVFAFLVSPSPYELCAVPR
In short: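 Quantitative HTS of Tox21 chemicals against CYP2D6 using a luminescent proluciferin substrate. After NADPH addition, 1 h room-temperature reaction; luminescence recorded 20 min post detection reagent.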

[18] = qHTS assay to identify small molecule antagonists of the peroxisome proliferator-activated receptor delta (PPARd) signaling pathway - cell viability counter screen (AID 743213); settings: PPARd-bla HEK293H viability, CellTiter-Glo luminescence, 17 h; viability change, negative = cytotoxic: at 62 µM (top of the series) unless noted; further: nearly all actives have a fitted effect of over 50% in size; further: potency means the concentration at half of the fitted maximal effect
In short: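 Same-well viability: cells pre-incubated 5 h, dosed with compound plus 300 nM L165041, kept 17 h at 37 C, FRET substrate 2 h RT, then CellTiter-Glo 30 min RT and luminescence.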

[19] = qHTS assay to identify small molecule agonists of the progesterone receptor (PR) signaling pathway - cell viability counter screen (AID 1346799; calls by dose curve; further: nearly all actives have a fitted effect of over 45% in size; further: potency means the concentration at half of the fitted maximal effect)
In short: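 Counter screen for cytotoxicity: compound-treated PR-UAS-bla HEK293T cells (16 hr, 37C, 5% CO2) were assayed with CellTiter-Glo, luminescence measured after 30 min at room temperature.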

[20] = qHTS assay to identify small molecule antagonists of the thyroid receptor (TR) signaling pathway - cell viability counter screen (AID 743064); settings: GH3.TRE-Luc viability, CellTiter-Fluor, 24 h; activity change, negative = cytotoxic: at 70.3 µM (top of the series) unless noted
In short: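 Plate GH3.TRE-Luc cells; incubate 4 h at 37 °C; add compound, then T3 to 1 nM final; incubate 23.5 h; add CellTiter-Fluor; incubate 30 min at 37 °C, 5% CO2; read fluorescence.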
Tags describe the fitted curve by direction and shape or compound fluorescence and quenching.

Structure (SMILES): CCNC(=O)C1CC(C)CCC1C(C)C (stereo unspecified)
- activation [1]: inconclusive: 5.95%
- ratio activity, negative = MMP loss [2]: inconclusive: 11.5%
- activation [3]: inconclusive: -2.64%
- Potency [4]: inconclusive: 63.3 µM [inhibitor, partial curve]

Structure (SMILES): CCCCCCS
- Potency [5]: inactive
- Potency [6]: inconclusive: 71 µM [inhibitor, partial curve]

Structure (SMILES): Nc1cc([N+](=O)[O-])ccc1Cl
- activity change, negative = inhibition [7]: inconclusive: -36.9%
- Potency [8]: inconclusive: 89.4 µM [inhibitor, single point]
- Potency [6]: active: 17.8 µM

Structure (SMILES): C=C1C[C@]23C[C@@]1(O)CC[C@H]2[C@@]12C=C[C@H](O)[C@@](C)(C(=O)O1)[C@H]2[C@@H]3C(=O)O
- ratio activity, negative = MMP loss [2]: inconclusive: 10.5%
- activation [3]: inconclusive: -0.0181%
- Potency [9]: inactive

Structure (SMILES): COc1ccnc(CS(=O)c2nc3cc(OC(F)F)ccc3[nH]2)c1OC (stereo unspecified)
- Potency [10]: inconclusive: 33.5 µM [cytotoxic, partial curve, poor fit]
- Potency [11]: inconclusive: 69 µM [cytotoxic]
- Potency [12]: inconclusive: 55.3 µM [inhibitor, partial curve, poor fit]
- Potency [3]: active: 27.5 µM
- Potency [13]: inconclusive: 4.35 µM [inhibitor, full curve]
- activity, negative = inhibition [14]: inconclusive: -0.394%
- Potency [4]: inconclusive: 31.9 µM [inhibitor, partial curve]

Structure (SMILES): CCCCCC(=O)OCC
- ratio activity, negative = MMP loss [2]: inconclusive: 16.7%
- activity change, negative = inhibition [15]: inconclusive: -2.69%
- activation [3]: inconclusive: -5.95%
- Potency [9]: inactive
- Potency [6]: inconclusive: 35.6 µM [inhibitor, partial curve]

Structure (SMILES): O=S(=O)(O)CCO
- activation [1]: inconclusive: 0.559% [at 95.1 µM]
- ratio activity, negative = inhibition [12]: inconclusive: -1.54% [at 81.1 µM]
- Potency [3]: inactive
- Potency [6]: inconclusive: 80.6 µM [inhibitor, partial curve, poor fit]

Structure (SMILES): CC/C=C(\C(=O)N[C@@H]1C(=O)N2C(C(=O)OCOC(=O)C(C)(C)C)=C(COC(N)=O)CS[C@H]12)c1csc(N)n1
- ratio activity, negative = MMP loss [2]: inconclusive: 24.4%
- activation [3]: inconclusive: 31.8% and inconclusive: 22.2%
- activity change, negative = inhibition [9]: inconclusive: -23.3%
- Potency [16]: inactive
- Potency [17]: inconclusive: 0.776 µM [inhibitor, single point]
- Potency [8]: inconclusive: 43.6 µM [inhibitor, single point]

Structure (SMILES): CO[C@@]1(NC(=O)CSC[C@@H](N)C(=O)O)C(=O)N2C(C(=O)O)=C(CSc3nnnn3C)CS[C@@H]21
- Potency [12]: inactive
- Potency [3]: inconclusive: 37.6 µM [rising, partial curve, poor fit]
- Potency [17]: inconclusive: 38.9 µM [inhibitor, single point]

Structure (SMILES): CCOC(=O)c1cccc(N)c1
- Potency [1]: inactive
- Potency [2]: inactive
- Potency [9]: inactive
- Potency [17]: inactive

Structure (SMILES): CC1CN(c2cc3c(cc2F)c(=O)c(C(=O)O)cn3-c2ccc(F)cc2F)CCN1 (stereo unspecified)
- Potency [16]: inconclusive: 2.11 µM [rising, partial curve, poor fit]

Structure (SMILES): Nc1cc(C(Cl)=C(Cl)Cl)c(S(N)(=O)=O)cc1S(N)(=O)=O
- Potency [15]: inactive
- ratio activity, negative = inhibition [12]: inconclusive: -7.18%
- Potency [3]: inactive
- activity, negative = inhibition [14]: inconclusive: 2.98% [at 42.5 µM]
- Potency [16]: inconclusive: 18.8 µM [rising, partial curve, poor fit]
- Potency [6]: inactive

Structure (SMILES): OCC1(CO)COCOC1
- Potency [2]: inconclusive: 2.4 µM [activator, full curve, poor fit]
- Potency [15]: inconclusive: 54.2 µM [activator, single point]
- activity change, negative = cytotoxicity [10]: inconclusive: 11%
- Potency [18]: inconclusive: 5.42 µM [cytotoxic, single point]
- Potency [14]: inactive
- activity change, negative = inhibition [7]: inconclusive: 8.45%
- Potency [19]: inconclusive: 0.24 µM [cytotoxic, single point]

Structure (SMILES): Cc1nc2n(c(=O)c1CCN1CCC(c3noc4cc(F)ccc34)CC1)CCC[C@H]2O
- Potency [1]: inactive
- Potency [2]: inactive
- activity, negative = inhibition [14]: inactive: 0.444% [at 19 µM]
- activity change, negative = inhibition [7]: inactive: 1.27% [at 18.9 µM]
- Potency [17]: active: 6.01 µM

Structure (SMILES): C/C=C/C=C/CO
- Potency [20]: inactive
- ratio activity, negative = inhibition [12]: inconclusive: 0.825%
- Potency [3]: inconclusive: 38.6 µM [rising, partial curve]
- Potency [18]: inactive
- Potency [13]: inconclusive: 30.6 µM [inhibitor, partial curve, poor fit]
- Potency [4]: inconclusive: 71 µM [inhibitor, partial curve]

Structure (SMILES): Cc1ccccc1C
- Potency [10]: inactive
- activity change, negative = inhibition [9]: inconclusive: 19.7% [at 78.8 µM]
- Potency [13]: inconclusive: 2.5 µM [inhibitor, single point]
- Potency [19]: inactive
- Potency [6]: inconclusive: 72.8 µM [inhibitor, partial curve, poor fit]
